Assay [1] deals with T1, GST-BIN2 (Arabidopsis thaliana) (UniProt Q39011).
T1 sequence: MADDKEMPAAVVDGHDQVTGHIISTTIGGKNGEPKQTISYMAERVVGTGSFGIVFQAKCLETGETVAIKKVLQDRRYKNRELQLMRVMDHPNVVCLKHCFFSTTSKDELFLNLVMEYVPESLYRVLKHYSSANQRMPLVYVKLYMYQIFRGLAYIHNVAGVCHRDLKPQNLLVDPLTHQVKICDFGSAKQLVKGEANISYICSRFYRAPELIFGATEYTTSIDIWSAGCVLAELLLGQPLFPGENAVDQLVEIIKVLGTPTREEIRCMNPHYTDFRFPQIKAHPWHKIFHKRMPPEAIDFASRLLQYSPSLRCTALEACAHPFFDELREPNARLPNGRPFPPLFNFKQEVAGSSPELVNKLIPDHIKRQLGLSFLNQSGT
The assay can be described thus: condition: only extract of dark-adapted seedlings (no red light); pull-down; semi-in vivo: as a3, but extract of seedlings that remained in darkness for 30 min; only the target purified.

By UniProt entry, the sequences of proteins in these tests, tags left out.
UniProt P14713: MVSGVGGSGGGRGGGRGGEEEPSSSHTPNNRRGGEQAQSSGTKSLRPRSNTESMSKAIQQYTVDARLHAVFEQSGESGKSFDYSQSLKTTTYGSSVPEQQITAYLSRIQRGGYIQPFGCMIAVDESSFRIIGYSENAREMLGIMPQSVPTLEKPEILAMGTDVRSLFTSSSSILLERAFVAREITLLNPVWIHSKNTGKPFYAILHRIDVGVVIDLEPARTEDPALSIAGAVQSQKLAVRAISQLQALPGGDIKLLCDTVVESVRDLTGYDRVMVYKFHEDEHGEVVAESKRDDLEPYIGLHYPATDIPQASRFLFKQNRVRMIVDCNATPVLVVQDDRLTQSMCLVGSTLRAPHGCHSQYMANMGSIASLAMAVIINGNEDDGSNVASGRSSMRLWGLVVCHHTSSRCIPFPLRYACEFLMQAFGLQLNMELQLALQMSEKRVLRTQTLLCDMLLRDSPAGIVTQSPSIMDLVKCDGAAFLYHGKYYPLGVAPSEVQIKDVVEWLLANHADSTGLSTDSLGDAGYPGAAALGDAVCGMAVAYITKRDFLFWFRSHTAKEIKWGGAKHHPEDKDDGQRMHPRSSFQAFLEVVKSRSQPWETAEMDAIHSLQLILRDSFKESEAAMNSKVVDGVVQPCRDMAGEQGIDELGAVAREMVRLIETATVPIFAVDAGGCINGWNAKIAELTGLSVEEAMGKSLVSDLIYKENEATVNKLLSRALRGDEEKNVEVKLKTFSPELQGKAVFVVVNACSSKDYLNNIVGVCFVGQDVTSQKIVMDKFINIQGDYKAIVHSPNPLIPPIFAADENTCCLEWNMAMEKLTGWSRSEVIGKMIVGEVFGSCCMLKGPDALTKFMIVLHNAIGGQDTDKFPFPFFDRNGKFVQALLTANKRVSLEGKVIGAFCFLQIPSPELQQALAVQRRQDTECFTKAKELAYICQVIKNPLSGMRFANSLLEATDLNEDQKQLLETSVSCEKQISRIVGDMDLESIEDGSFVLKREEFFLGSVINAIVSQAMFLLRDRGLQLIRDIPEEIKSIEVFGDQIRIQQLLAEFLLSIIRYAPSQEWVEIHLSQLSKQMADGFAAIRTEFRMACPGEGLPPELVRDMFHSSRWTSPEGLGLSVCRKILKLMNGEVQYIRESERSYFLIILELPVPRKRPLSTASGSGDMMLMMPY

Assay [2] deals with T1, GST-BIN2 (Arabidopsis thaliana). The assay can be described thus: pull-down; semi-in vivo: GST-BIN2 on MagneGST Glutathione Particles, washed with lysis buffer (50 mM Tris-HCl pH 7.5, 150 mM NaCl, 0.2% Triton X-100), incubated 1 h with extract of dark-adapted seedlings exposed to far-red (10 umol/m2/s, phyA-YFP-OX) or red light (50 umol/m2/s, Myc-phyB-OX) for 30 min; anti-GFP or anti-Myc blot; only the target purified.

Assay [3] concerns the target T2, BIN2-nLUC (Arabidopsis thaliana) (UniProt Q39011).
T2 sequence: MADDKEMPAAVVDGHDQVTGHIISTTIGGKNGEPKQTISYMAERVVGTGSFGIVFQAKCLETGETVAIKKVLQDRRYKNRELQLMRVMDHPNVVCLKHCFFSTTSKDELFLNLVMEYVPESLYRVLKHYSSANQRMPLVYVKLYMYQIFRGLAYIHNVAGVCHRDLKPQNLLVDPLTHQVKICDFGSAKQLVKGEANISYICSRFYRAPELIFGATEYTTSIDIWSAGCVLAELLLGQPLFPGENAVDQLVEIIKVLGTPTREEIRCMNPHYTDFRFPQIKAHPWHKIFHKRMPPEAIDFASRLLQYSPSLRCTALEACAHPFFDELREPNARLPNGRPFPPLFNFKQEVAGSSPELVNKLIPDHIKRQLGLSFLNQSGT
The assay can be described thus: split reporter; split-luciferase complementation in Nicotiana benthamiana leaves; nLUC and cLUC fusions co-infiltrated 1:1; for BIN2-BES1 also with Myc-phyA, Myc-phyB or Myc-GUS co-expressed (1:1:1).

Assay [4] has as its target T1, GST-BIN2 (Arabidopsis thaliana). Put plainly: condition: only extract of dark-adapted seedlings (no far-red light); pull-down; semi-in vivo: as a3, but extract of seedlings that remained in darkness for 30 min; only the target purified.

These are yes or no findings as the source states them, for the method shown. In cells and extracts the contact can be indirect. Some binding calls cover weakened binding; strength is not graded here. Tags and fused reporters may be left off the sequences shown.

Consider “Myc-phyB (from UniProt P14713 1-1172) (receptor)”, for which the results for the binding result in assay [1] and in assay [2] were “no binding” and “binds”, respectively.
Turning to “cLUC-phyB (from UniProt P14713 1-1172) (receptor)”, the binding result in assay [3] is recorded as “binds”.

B1: cLUC-phyA (receptor, UniProt P14712 1-1122)
chain: MSGSRPTQSSEGSRRSRHSARIIAQTTVDAKLHADFEESGSSFDYSTSVRVTGPVVENQPPRSDKVTTTYLHHIQKGKLIQPFGCLLALDEKTFKVIAYSENASELLTMASHAVPSVGEHPVLGIGTDIRSLFTAPSASALQKALGFGDVSLLNPILVHCRTSAKPFYAIIHRVTGSIIIDFEPVKPYEVPMTAAGALQSYKLAAKAITRLQSLPSGSMERLCDTMVQEVFELTGYDRVMAYKFHEDDHGEVVSEVTKPGLEPYLGLHYPATDIPQAARFLFMKNKVRMIVDCNAKHARVLQDEKLSFDLTLCGSTLRAPHSCHLQYMANMDSIASLVMAVVVNEEDGEGDAPDATTQPQKRKRLWGLVVCHNTTPRFVPFPLRYACEFLAQVFAIHVNKEVELDNQMVEKNILRTQTLLCDMLMRDAPLGIVSQSPNIMDLVKCDGAALLYKDKIWKLGTTPSEFHLQEIASWLCEYHMDSTGLSTDSLHDAGFPRALSLGDSVCGMAAVRISSKDMIFWFRSHTAGEVRWGGAKHDPDDRDDARRMHPRSSFKAFLEVVKTRSLPWKDYEMDAIHSLQLILRNAFKDSETTDVNTKVIYSKLNDLKIDGIQELEAVTSEMVRLIETATVPILAVDSDGLVNGWNTKIAELTGLSVDEAIGKHFLTLVEDSSVEIVKRMLENALEGTEEQNVQFEIKTHLSRADAGPISLVVNACASRDLHENVVGVCFVAHDLTGQKTVMDKFTRIEGDYKAIIQNPNPLIPPIFGTDEFGWCTEWNPAMSKLTGLKREEVIDKMLLGEVFGTQKSCCRLKNQEAFVNLGIVLNNAVTSQDPEKVSFAFFTRGGKYVECLLCVSKKLDREGVVTGVFCFLQLASHELQQALHVQRLAERTAVKRLKALAYIKRQIRNPLSGIMFTRKMIEGTELGPEQRRILQTSALCQKQLSKILDDSDLESIIEGCLDLEMKEFTLNEVLTASTSQVMMKSNGKSVRITNETGEEVMSDTLYGDSIRLQQVLADFMLMAVNFTPSGGQLTVSASLRKDQLGRSVHLANLEIRLTHTGAGIPEFLLNQMFGTEEDVSEEGLSLMVSRKLVKLMNGDVQYLRQAGKSSFIITAELAAANK
B1: the binding result in assay [3] was “binds”.

B2: phyA-YFP (receptor, UniProt P14712 1-1122)
chain: MSGSRPTQSSEGSRRSRHSARIIAQTTVDAKLHADFEESGSSFDYSTSVRVTGPVVENQPPRSDKVTTTYLHHIQKGKLIQPFGCLLALDEKTFKVIAYSENASELLTMASHAVPSVGEHPVLGIGTDIRSLFTAPSASALQKALGFGDVSLLNPILVHCRTSAKPFYAIIHRVTGSIIIDFEPVKPYEVPMTAAGALQSYKLAAKAITRLQSLPSGSMERLCDTMVQEVFELTGYDRVMAYKFHEDDHGEVVSEVTKPGLEPYLGLHYPATDIPQAARFLFMKNKVRMIVDCNAKHARVLQDEKLSFDLTLCGSTLRAPHSCHLQYMANMDSIASLVMAVVVNEEDGEGDAPDATTQPQKRKRLWGLVVCHNTTPRFVPFPLRYACEFLAQVFAIHVNKEVELDNQMVEKNILRTQTLLCDMLMRDAPLGIVSQSPNIMDLVKCDGAALLYKDKIWKLGTTPSEFHLQEIASWLCEYHMDSTGLSTDSLHDAGFPRALSLGDSVCGMAAVRISSKDMIFWFRSHTAGEVRWGGAKHDPDDRDDARRMHPRSSFKAFLEVVKTRSLPWKDYEMDAIHSLQLILRNAFKDSETTDVNTKVIYSKLNDLKIDGIQELEAVTSEMVRLIETATVPILAVDSDGLVNGWNTKIAELTGLSVDEAIGKHFLTLVEDSSVEIVKRMLENALEGTEEQNVQFEIKTHLSRADAGPISLVVNACASRDLHENVVGVCFVAHDLTGQKTVMDKFTRIEGDYKAIIQNPNPLIPPIFGTDEFGWCTEWNPAMSKLTGLKREEVIDKMLLGEVFGTQKSCCRLKNQEAFVNLGIVLNNAVTSQDPEKVSFAFFTRGGKYVECLLCVSKKLDREGVVTGVFCFLQLASHELQQALHVQRLAERTAVKRLKALAYIKRQIRNPLSGIMFTRKMIEGTELGPEQRRILQTSALCQKQLSKILDDSDLESIIEGCLDLEMKEFTLNEVLTASTSQVMMKSNGKSVRITNETGEEVMSDTLYGDSIRLQQVLADFMLMAVNFTPSGGQLTVSASLRKDQLGRSVHLANLEIRLTHTGAGIPEFLLNQMFGTEEDVSEEGLSLMVSRKLVKLMNGDVQYLRQAGKSSFIITAELAAANK
Consider B2, for which the binding entry in assay [2] is “binds”; in assay [4] it was “no binding”.

(Values after PMC9005995.)
